Binding signal data for 42 sequences are collected here from publication PMC7819943, “Rice protein-binding microarrays: a tool to detect cis-acting elements near promoter regions in rice”.

Some of the results follow.

The experiment has as its target T1, OsWOX13 (Oryza sativa, UniProt Q5QMM3 1-267).
T1 sequence: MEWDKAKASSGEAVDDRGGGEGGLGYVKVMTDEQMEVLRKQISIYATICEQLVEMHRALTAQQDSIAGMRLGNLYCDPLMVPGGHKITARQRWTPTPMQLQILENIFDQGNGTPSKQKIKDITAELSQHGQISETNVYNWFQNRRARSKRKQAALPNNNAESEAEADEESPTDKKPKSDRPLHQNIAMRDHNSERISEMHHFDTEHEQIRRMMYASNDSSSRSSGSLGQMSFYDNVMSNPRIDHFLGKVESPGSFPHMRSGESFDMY
In words: protein-binding microarray (RPBM); PBS, 2% BSA, 51.3 ng/ul salmon testes DNA, 50 uM zinc acetate, 200 nM TF, 25 C, 1 h; high values mean tight binding. Conditions: protein: recombinant; tags: N-terminal polyhistidine and DsRed monomer fusion (pET32a); label: CyDye5-dUTP incorporated in the synthesized complementary strand; 3' TTTTT single-stranded linker to array surface; dsDNA, one strand shown. The procedure, abridged: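 Using Ni–NTA, transcription factors fused N-terminally to polyhistidine and DsRed were purified after expression in E. coli BL21-CodonPlus. These were incubated at 200 nM with a blocked, double-stranded custom Agilent array for 1 h at 25 °C in a buffer containing 50 µM zinc acetate, and the array was washed. The binding signal is per-feature fluorescence intensity (arbitrary units) on an Axon 4000B scanner.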
Regarding “AACAAAATTTTACTAAATTCGAATTATTTGGTCAGTGTCACGGAGTCACCTAGTGCAG”, the binding signal was 8550 fluorescence intensity (a.u.). Turning to “GTGTAATTATACTATAATTGTACTGTAATTACATCTGTCACGGAGTCACCTAGTGCAG”, the binding signal was 56600 fluorescence intensity (a.u.). The figure for “CCAGATTGGCTTCGGCTCCTTCTTCCATCGCCGTCCTGTTCGGAGTCACCTAGTGCAG” is 36700 fluorescence intensity (a.u.). The figure for “CATGAGATTATTGACTAGCACGGTAAAACAAAAGCCACAACGGAGTCACCTAGTGCAG” is 7900 fluorescence intensity (a.u.); for “GCTGATCAGTACTCGATTGATCAATCAGCTATATATACAACGGAGTCACCTAGTGCAG” it is 11900 fluorescence intensity (a.u.); for “GTTCAGAAAGGATTGACTGATTAAGGAGTACTGTAGAGATCGGAGTCACCTAGTGCAG” it is 9580 fluorescence intensity (a.u.).

Turning to “TTAATTAACGCGATTAATTAGCCGCAAATCTCAATCCAGGCGGAGTCACCTAGTGCAG”, the binding signal was 53200 fluorescence intensity (a.u.). As to “TTAATAATATAATAGATTTGGCTTCATATTGGTATCAAACCGGAGTCACCTAGTGCAG”, the binding signal is 7620 fluorescence intensity (a.u.). The figure for “CTGATTCTTTCCAATCAGGGCAAGAATTATCTGTATCAAGCGGAGTCACCTAGTGCAG” is 10400 fluorescence intensity (a.u.); for “CATATACAAGCCAGAGAGATTGATTAATATCCCTGTCGCACGGAGTCACCTAGTGCAG” it is 5600 fluorescence intensity (a.u.).

Turning to “TAAATTAATATATGATTGATCACTTCATAAACATGGAAGTCGGAGTCACCTAGTGCAG”, the binding signal was 31900 fluorescence intensity (a.u.). For “AATTAATTAATTAGCAATGCAGCATCGTCGATCATTGACCCGGAGTCACCTAGTGCAG”, the binding signal is 62500 fluorescence intensity (a.u.). For “GAGAAATGATTGACGCCATGGATCGGAAGAGGCTGGGTGCCGGAGTCACCTAGTGCAG” the value was 51700 fluorescence intensity (a.u.).

As to “ATTACATATCAATTTTGTTATATTTACATACTTTCTCCGTCGGAGTCACCTAGTGCAG”, the binding signal is 5880 fluorescence intensity (a.u.). Consider “TAGTCTGACAGATCAATTACAACCTCCGCATTCATCTTAGCGGAGTCACCTAGTGCAG”, for which the binding signal is 22900 fluorescence intensity (a.u.). For “ACTGAAATGCTAATCAAAGTATTCCATTCCAATGGGTTTACGGAGTCACCTAGTGCAG” the value was 7770 fluorescence intensity (a.u.); for “ATATAATTGGTAAAGTATATATATATACATATCCCCAATTCGGAGTCACCTAGTGCAG”, 27000 fluorescence intensity (a.u.). The figure for “TTATATTTAATCACCGTGCAATTAATTAAGCGTGGCTGACCGGAGTCACCTAGTGCAG” is 31300 fluorescence intensity (a.u.); for “ACTACAAATTAATTAAAGTAGAGTAACGAAATATCCACTGCGGAGTCACCTAGTGCAG” it is 22700 fluorescence intensity (a.u.). On to “TCTGATGTGTTTCTTCATATGATTTTGTGTATGCCGAGTTCGGAGTCACCTAGTGCAG”, for which the binding signal is 7590 fluorescence intensity (a.u.).

For “CTTAATTAATTTATTATTAGCAAATATTTACTGTAGCACACGGAGTCACCTAGTGCAG”, the binding signal is 37800 fluorescence intensity (a.u.). For “GAAGAAATTAAAACAATGTGACAGAAAAGTTAGAAGTTTGCGGAGTCACCTAGTGCAG” the value was 5410 fluorescence intensity (a.u.). For “AACATTAACTGTTTTCTTTAGCAACTACTGATCGATACACCGGAGTCACCTAGTGCAG” the value was 3510 fluorescence intensity (a.u.); for “GGTGGTGATTTGTGGGCGTTAGCCGCTGACATGTGGGTCCCGGAGTCACCTAGTGCAG”, 16400 fluorescence intensity (a.u.). The figure for “TCATGGCGTAATTAGACTCAAAAGATTCGTCTCGCAATTTCGGAGTCACCTAGTGCAG” is 3330 fluorescence intensity (a.u.); for “AAATGATTAAAATACATCGGCGTGAAAATATTTATCATGACGGAGTCACCTAGTGCAG” it is 11000 fluorescence intensity (a.u.).

With “GTGCATAATCTGTAATTAACATTTGTTACATGGACAGCCCCGGAGTCACCTAGTGCAG”, the binding signal is 15100 fluorescence intensity (a.u.). “TTGTAATTAATCATTTTGCAAGATTTGCATGACTAGTAAACGGAGTCACCTAGTGCAG”: the binding signal is 12000 fluorescence intensity (a.u.). For “ATTCTTGATTACGAACAATACTAATATTATCATAATAAACCGGAGTCACCTAGTGCAG” the value was 5520 fluorescence intensity (a.u.). For “GCTGAACTAATAATTACCTTTTATGTGGATCTAGTGACAGCGGAGTCACCTAGTGCAG”, the binding signal was 10900 fluorescence intensity (a.u.).

Turning to “CTAATTATATAAATGAGAGCTAATCCACGAGATGATCTTTCGGAGTCACCTAGTGCAG”, the binding signal is 3640 fluorescence intensity (a.u.).

On to “GATTAGTTATTAGCTTGATTGGGTGCGTGGTCTGCTTCTGCGGAGTCACCTAGTGCAG”, for which the binding signal is 27200 fluorescence intensity (a.u.). For “ACGTACAATTTGCTAAATTTTCACAAGTCCCTCTAGAACTCGGAGTCACCTAGTGCAG” the value was 3440 fluorescence intensity (a.u.); for “TAGTTAATTGTGCCAAACAAAATTCAAAATTAAGACATCTCGGAGTCACCTAGTGCAG”, 33000 fluorescence intensity (a.u.).

As for “CACAATTATGCCAATCAACATCTGGTCTCAAGACGTTCAGCGGAGTCACCTAGTGCAG”, the binding signal is 35400 fluorescence intensity (a.u.). The figure for “ATATGTAAATTACTTTTACGCTTTATTGAATTTACTTTTACGGAGTCACCTAGTGCAG” is 6150 fluorescence intensity (a.u.); for “GTGATTAGCCCATACTAATTGGGCCATGATGGGATTCTGACGGAGTCACCTAGTGCAG” it is 34600 fluorescence intensity (a.u.). The figure for “AAGATAAGATTGGGAGCACAACAAACAAAGTTGGGCACATCGGAGTCACCTAGTGCAG” is 6630 fluorescence intensity (a.u.); for “AATTTATTAAATTAATTTAGACTTGCGAGAAGAACTTCAGCGGAGTCACCTAGTGCAG” it is 27000 fluorescence intensity (a.u.); for “ATTGCATCATTTCGATTAGTTAATTTGCAACGATTACGACCGGAGTCACCTAGTGCAG” it is 3340 fluorescence intensity (a.u.). For “TTCTTTTGCACCGTCCGATATCAATCATGAGGAATGAACCCGGAGTCACCTAGTGCAG” the value was 4030 fluorescence intensity (a.u.); for “GTGACCGGTTTTGATTAGTTAAGGGACGCGGGATATCTGGCGGAGTCACCTAGTGCAG”, 9410 fluorescence intensity (a.u.).
